Laboratory results from PubChem BioAssay AID1508642 (National Center for Advancing Translational Sciences (NCATS), 2021).
In all, about 43,000 compounds went through this assay and about 200 (0.47%) were called active. About 12% were inconclusive and are not listed. Calls come from the whole dose curve; as a rule, active = well fitted cell-killing curve with a large enough effect; inconclusive = small, poorly fitted or top-dose-only effect, or effect the other way; inactive = flat fitted curve, though single readings scatter. Some of the results follow.

Assay: Cell viability qHTS assay in S16 Pmp22-F2sN cells; note: nearly all actives have a fitted effect of over 65% in size
Conditions: S16 Pmp22-F2sN Schwann cells viability, CellTiter-Glo, 24 h; series mostly up to 57.5 µM; activity change, negative = cytotoxicity: at the top concentration
Summary of the method: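 Viability was measured by CellTiter-Glo luminescence (15 min, room temperature). This followed 24 h at 37 °C of compound exposure (23 nL pin transfer) in S16 Pmp22-F2sN Schwann cells, 500-1,000 per well.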
% is set by controls: 0 for no effect and ±100 for the full control effect; potency is the fitted concentration of half-maximal effect.

Row | SMILES | activity change, negative = cytotoxicity | Potency
1 | COc1ccccc1CNc1ncnc2c1c(-c1ccccc1)cn2-c1ccc(Br)cc1 | inactive: -7.49% | 
2 | CCN(CC)c1ccc(NC(=O)Cn2c3ncccc3c(=O)n2-c2ccccc2)c(C)c1 | inactive: -0.527% | 
3 | COc1cc2c(=O)c(C(=O)c3ccc(F)cc3)cn(Cc3cccc(F)c3)c2cc1OC | inactive: -17.5% | 
4 | Cc1ccc(C(=O)NCCC(C)C)cc1NC(=O)c1nsc2ccccc12 | inactive: -19.4% | 
5 | COC(=O)c1cc(S(=O)(=O)N2CCN(c3cc(Cl)ccc3C)CC2)c[nH]1 | inactive: 0.318% | 
6 | CC1=C(C(N)=O)C(c2ccccc2F)n2nc(-c3ccc(Cl)cc3)nc2N1 (stereo not given) | inactive: -2.1% | 
7 | Cc1ccc(CNC(=O)Cn2cc3c(n2)-c2c(oc(C(=O)N4CCOCC4)c2C)CC3)cc1 | inactive: -11.8% | 
8 | Cc1cc(C)c2oc(C(=O)Nc3c(C(=O)c4ccccc4)oc4ccccc34)cc(=O)c2c1 | inactive: 0.253% | 
9 | O=S(=O)(NCC(c1ccco1)N1CCOCC1)c1ccc(F)cc1 (stereo not given) | inactive: 14.4% | 
10 | COc1ccc(OC)c(NC(=O)N2CC(C)Oc3ccc(C)cc32)c1 (stereo not given) | inactive: -0.473% | 
11 | Cc1ccc(C(=O)c2cn(CC(=O)NCc3ccccc3)c3nc(C)ccc3c2=O)cc1 | inactive: 3.55% | 
12 | Cc1cc(C)n(CC(=O)Nc2cc(F)ccc2F)c(=O)c1C#N | inactive: 12.6% | 
13 | COc1ccc(C(=O)Nc2nc(-c3nnn(-c4ccc(F)cc4F)c3C)ns2)cc1 | inactive: -18.9% | 
14 | COc1cccc(C(=O)Nc2ccc3nc4n(c(=O)c3c2)CCCCC4)c1 | inactive: 0.492% | 
15 | Cc1ccc(O)c(Nc2nc3ccccc3c3nncn23)c1 | inactive: 6.42% | 
16 | CC(C)c1nc2ccc(C(=O)NCCCN3CCN(c4ccccc4)CC3)cc2o1 | inactive: -8.68% | 
17 | O=C(CN1CCN(Cc2ccc(F)cc2Cl)C1=O)NCCc1ccc(Cl)cc1 | inactive: 11.4% | 
18 | CCOc1ccc(C(=O)Nc2ccc3oc(-c4cccc5ccccc45)nc3c2)cc1 | inactive: 11.3% | 
19 | Cc1ccc(-c2nc(C)c(CCNC(=O)C(=O)Nc3cc(C)ccc3C)s2)cc1 | inactive: 22.3% | 
20 | Cc1csc2nc(-c3ccc(NS(=O)(=O)c4cccc(F)c4)cc3)cn12 | inactive: 10.3% | 
21 | CCc1ccccc1NC(=O)Cn1c(=O)n(Cc2ccccc2)c(=O)c2c(C)c(C(=O)N(C)C)sc21 | inactive: 3.42% | 
22 | Cc1csc2nc(-c3cccc(NS(C)(=O)=O)c3)cn12 | inactive: 0.126% | 
23 | Cc1ccccc1CN1c2ccccc2-c2nc(SCC(=O)c3ccc(Cl)cc3)ncc2S1(=O)=O | inactive: 4.53% | 
24 | COCCCNC(=O)CCCN1C(=O)CCn2nc(-c3cccn3C)cc21 | inactive: 7.69% | 

Row | SMILES | activity change, negative = cytotoxicity | Potency
25 | CSc1ncc(Cl)c(C(=O)Nc2c(C(=O)Nc3cccc(C)c3)oc3ccccc23)n1 | inactive: 7.1% | 
26 | Cc1ccc(S(=O)(=O)c2c(Nc3ccc(C)c(C)c3)sc(C(=O)c3ccc4c(c3)OCO4)c2N)cc1 | inactive: -1.94% | 
27 | Cc1ccccc1-c1noc(-c2ccc(N3CCC(C)CC3)c([N+](=O)[O-])c2)n1 | inactive: 8.87% | 
28 | Cc1ccccc1CNC(=O)c1ccc(NC(=O)N2CCCCc3ccccc32)cc1 | inactive: 1.25% | 
29 | COc1cc(CNCCSc2nnnn2C)ccc1OCc1ccccc1C | inactive: 0.0651% | 
30 | CCCOc1ccc(C2=NC(c3ccncc3)=Nc3ccc(C)cc3N2)cc1 | inactive: 0.447% | 
31 | Cc1ccc(-c2n[nH]c3c2C(c2ccccc2Cl)N(c2ccc(C(=O)O)cc2)C3=O)cc1 (stereo not given) | inactive: 9.39% | 
32 | Cc1oc2ccc(NS(=O)(=O)c3ccc(F)cc3)cc2c1C(=O)O | inactive: 14% | 
33 | COc1ccc(CCNC(=O)C(=O)Nc2ccc(C)c(C)c2)cc1 | inactive: 16.7% | 
34 | CC1CCN(S(=O)(=O)c2cc(C(=O)NCc3ccc(N(C)C)cc3)n(C)c2)CC1 | inactive: 5.03% | 
35 | O=C(CN1C(=O)CC(c2ccco2)Sc2ccccc21)Nc1cccc(C(F)(F)F)c1 (stereo not given) | inactive: -12.7% | 
36 | O=C(CSc1nc2c(c(=O)[nH]1)CCCC2)Nc1ccccc1C(F)(F)F | inactive: 2.14% | 
37 | CC(C)c1ccc(S(=O)(=O)c2cn(CC(=O)Nc3ccc(F)cc3)c3ccccc3c2=O)cc1 | inactive: 3.76% | 
38 | CC(=O)Nc1ccc(S(=O)(=O)NC2=NCN(C(C)C)CN2)cc1 | inactive: -5.43% | 
39 | COc1ccc(C(=O)N2CC(=O)Nc3ccc(C)cc3C2c2ccc(F)cc2)c(OC)c1 (stereo not given) | inactive: -0.0822% | 
40 | Cc1cc(F)ccc1NC(=O)C(C(C)C)N1Cc2ccccc2C1=O (stereo not given) | inactive: 0.0389% | 
41 | COc1ccccc1NC(=O)c1nnn(-c2ccc(F)cc2)c1C | inactive: 12% | 
42 | COc1ccc(CNC(=O)c2ccc3c(c2)N(Cc2ccccc2)C(=O)c2ccccc2S3=O)cc1 (stereo not given) | inactive: 3.57% | 
43 | CCC(=O)N1CCc2cc(Br)cc(S(=O)(=O)CCC(=O)NCCc3ccc(C)cc3)c21 | inactive: 15.2% | 
44 | CN(CC(=O)NCc1ccccc1Cl)S(=O)(=O)c1ccc2c(c1)c(=O)n(C)c(=O)n2C | inactive: 9% | 
45 | Cc1ccc(Cl)cc1N1CCN(C(=O)Cc2c(C(=O)O)c(C)cn2C)CC1 | inactive: 1% | 
46 | Cc1sc2ncn(CC(=O)N3CCN(c4ccccc4F)CC3)c(=O)c2c1S(=O)(=O)N1CCN(c2ncccn2)CC1 | inactive: 3% | 
47 | O=c1c(-c2cc(-c3ccc(Cl)cc3)nc3c2COc2ccccc2-3)coc2ccccc12 | inactive: 21.6% | 
48 | COC(=O)c1ccc(NC(=O)CCn2cccn2)cc1 | inactive: -2.46% | 

Row | SMILES | activity change, negative = cytotoxicity | Potency
49 | c1ccc(CSc2nnc(C3CCNCC3)o2)cc1 | inactive: 2.21% | 
50 | CCOc1ccc(-c2cc3c(=O)n(Cc4nc(-c5ccc(OC)cc5OC)oc4C)ccn3n2)cc1Cl | inactive: -0.0038% | 
51 | COc1cccc(Oc2nc3c(c(=O)n(Cc4ccccc4Cl)c(=O)n3C)n2C)c1 | inactive: -16% | 
52 | O=c1[nH]c2ccc(NCc3ccc(-c4ccccc4F)o3)cc2[nH]1 | inactive: -14.7% | 
53 | Cc1ccc(C(C)C)c(OCC(=O)Nc2cccc(-c3nc4ncccc4o3)c2)c1 | inactive: -4.33% | 
54 | Cc1ccc2oc(=O)c3cnn(CC(=O)N4CCN(c5cccc(C(F)(F)F)c5)CC4)c3c2c1 | inactive: 11% | 
55 | CCC(C)NC(=O)CSc1nc2c(sc3ccccc32)c(=O)n1CCc1ccccc1 (stereo not given) | inactive: -13.2% | 
56 | O=S(=O)(c1cccc(C(F)(F)F)c1)N1CCC(Oc2ccc(-n3cnnn3)cc2)CC1 | inactive: -2.4% | 
57 | CCN(CC)S(=O)(=O)c1ccc2c(c1)N(CC(=O)NCc1ccc(F)cc1)C(=O)CO2 | inactive: 10% | 
58 | Cc1cc(N2CCN(c3cccc(C(F)(F)F)c3)CC2)n2nc(-c3ccccc3C)nc2n1 | inactive: 1.76% | 
59 | CN(C)c1ccc(C2CC(c3c(O)n(C4CCCCC4)c(=O)[nH]c3=O)=Nc3ccccc3S2)cc1 (stereo not given) | inactive: -0.519% | 
60 | COc1ccc(NC(=O)C2=C(C)Nc3c(C(=O)Nc4ccc(C)cc4)cnn3C2c2cc(OC)ccc2OC)cc1 (stereo not given) | inactive: -3.14% | 
61 | COc1cccc(NC(=O)Cn2c(=O)n(Cc3ccccc3)c(=O)c3c2c2cc(C)ccc2n3C)c1 | inactive: -12.4% | 
62 | COc1cc(OC)c(OC)cc1CN1CCc2nc(N3CCN(c4ccccc4F)CC3)ncc2C1 | inactive: -10.3% | 
63 | Cc1ccc2c(C)c(C(=O)N3CCC(c4nc5ccccc5s4)CC3)oc2c1C | inactive: 10.3% | 
64 | O=C(Nc1ccccc1C(F)(F)F)Nc1c[nH]c(=O)[nH]c1=O | inactive: -0.74% | 
65 | COc1ccc(Nc2c(-c3ccco3)nc3cccc(C)n23)cc1 | inactive: 1.72% | 
66 | Cc1ccc(OCC(=O)N(Cc2ccc(Cl)cc2)CC2CCCO2)cc1C (stereo not given) | inactive: 7.83% | 
67 | COc1ccc(C2C=C(c3ccccc3)Nc3nc(NS(=O)(=O)c4ccc(C)cc4)nn32)cc1 (stereo not given) | inactive: 1.09% | 
68 | CN(Cc1ccccc1)C(=O)Cn1c(=O)c2cccn2c2ccc(F)cc21 | inactive: 18.3% | 
69 | CCOC(=O)CNC(=O)CC(c1cc(OC)c(OC)c(OC)c1)N1Cc2ccccc2C1=O (stereo not given) | inactive: 12.6% | 
70 | CCOC(=O)c1ccc(NC(=O)CCn2c(=O)oc3ccccc32)cc1 | inactive: 26.4% | 
71 | CCN(CC)c1ccc(C(=O)Nc2ccc3nc(N(CC)CC)cc(C)c3c2)cc1 | inactive: -1.56% | 
72 | O=S(=O)(NCC(c1ccco1)N1CCOCC1)c1ccc(Cl)cc1 (stereo not given) | inactive: 0.131% | 

Row | SMILES | activity change, negative = cytotoxicity | Potency
73 | Cc1ccccc1NC(=O)C1CCN(S(=O)(=O)c2ccccc2)CC1 | inactive: -5.61% | 
74 | CCc1ccc(NC(=O)C2CCCN(S(=O)(=O)c3cccc4cccnc34)C2)cc1 (stereo not given) | inactive: -24.5% | 
75 | COC(=O)c1ccc(CNC(=O)c2nc(Cn3nc(C)c(Br)c3C)no2)cc1 | inactive: -4.79% | 
76 | COc1cc2c(cc1OC)C(COc1cc(C)cc(C)c1)N(C(=O)c1ccc(S(=O)(=O)N3CCCC3)cc1)CC2 (stereo not given) | inactive: 2.26% | 
77 | O=C(CSc1nc2c([nH]c3ccccc32)c(=O)n1-c1cccc(Cl)c1)NCc1ccccc1 | inactive: -7.57% | 
78 | O=C(CCCCCn1c(=O)[nH]c2ccccc2c1=O)N1CCN(c2ccc(Cl)cc2)CC1 | inactive: 7.8% | 
79 | Cc1ccc(C)c(-c2ccc(=O)n(Cc3ccc(F)cc3Cl)n2)c1 | inactive: -5.92% | 
80 | CCOC(=O)C1CCCN(C(=O)Cn2ncc3c4ccccc4n(Cc4ccc(F)cc4)c3c2=O)C1 (stereo not given) | inactive: -16% | 
81 | O=C(COc1ccccc1)Nc1sc2c(c1C(=O)Nc1ccccc1)CCCCC2 | inactive: 8.9% | 
82 | CCc1nnc(NC(=O)CSc2nc3c([nH]c4ccccc43)c(=O)n2-c2ccc(C)cc2)s1 | inactive: -0.619% | 
83 | CCc1nc2ccc(C(=O)N3CCN(c4cccc(OC)c4)CC3)cc2nc1CC | inactive: -3.22% | 
84 | COc1cc(C(=O)NCc2nnnn2-c2ccc(C)c(C)c2)cc(OC)c1OC | inactive: -1.09% | 
85 | COc1ccc(OCCn2cc(C(=O)c3ccco3)c3ccccc32)cc1 | inactive: -5.73% | 
86 | CCC(=O)N1CCc2cc(S(=O)(=O)NC(Cc3ccccc3)C(=O)NCc3ccc(C)cc3)ccc21 (stereo not given) | inactive: 7.41% | 
87 | CCOc1ccccc1CN1C(=O)c2ccccc2C1C(=O)NC1CCCCCC1 (stereo not given) | inactive: -4.95% | 
88 | COC(=O)c1cc2occc2n1Cc1nc(-c2ccccc2C)oc1C | inactive: 5.01% | 
89 | CC(=O)Nc1ccc(NC(=O)CSc2cn(CC(=O)N(C(C)C)C(C)C)c3ccccc23)cc1 | inactive: 3.02% | 
90 | Cc1ccc(-c2noc(CN(C3CCCCC3)S(=O)(=O)c3ccc(F)cc3)n2)cc1 | inactive: -19.2% | 
91 | Cc1cc2oc(C(=O)NCCc3ccc(S(N)(=O)=O)cc3)cc(=O)c2cc1C | inactive: -3.39% | 
92 | O=c1c(-c2cc(-c3ccc(F)cc3)nc3c2COc2ccc(Cl)cc2-3)coc2ccc(F)cc12 | inactive: 2.64% | 
93 | CC(=O)N1c2ccc(S(=O)(=O)N3CCN(c4cc(Cl)ccc4C)CC3)cc2CC1C (stereo not given) | inactive: -1.51% | 
94 | COc1ccc(-c2nc(C)c(CCNC(=O)c3ccco3)s2)cc1 | inactive: 6.15% | 
95 | CC(C)c1ccc(NC(=O)CSC2=Nc3ccccc3C3=NC(CCC(=O)NCc4ccc(F)cc4)C(=O)N23)cc1 (stereo not given) |  | active: 28.2 µM
